# Among all 2,200 compounds or so, fewer than 10 were called active. Some of the results follow. Entries without a call are filed as inconclusive in the source.
# Biological target: GTPase KRas (Homo sapiens) (UniProt P01116)
# Assay: Fragment capture on engineered cysteines, share of protein labelled (AID 2202238)
# Set-up: protein at 5 µM with 500 µM competing thiol for 1.5 h
# Details: KRAS G12D cysteine mutants, disulfide tethering, MALDI-TOF labeling; stronger effect = higher value; H27C mutant labeling; fragment at 500 µM
# Chain of UniProt P01116 (P01116 whole entry, looked up, the tested form may be a part): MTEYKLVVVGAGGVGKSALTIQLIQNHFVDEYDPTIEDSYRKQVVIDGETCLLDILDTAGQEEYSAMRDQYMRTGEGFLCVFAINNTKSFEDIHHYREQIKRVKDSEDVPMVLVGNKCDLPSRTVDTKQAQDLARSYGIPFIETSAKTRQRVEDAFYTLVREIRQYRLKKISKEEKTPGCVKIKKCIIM
row,Compound,percent labeling
1,O=C(CCc1sccc1Br)NCCS,39.7%
2,CC(C)Cc1nnc(NC(=O)CN(C)C(=O)CCS)s1,34.9%
3,COC(=O)C1CC2(CCS(=O)(=O)CC2)CN1C(=O)CCS (configuration not stated),33.4%
4,O=C(CCS)NC1CCCOC1c1ccncc1 (configuration not stated),29.6%
5,O=C(NCCS)c1cnc(-c2ccoc2)s1,11.9%
6,COc1cc(Br)c(CCNC(=O)CCS)cc1OC,45.1%
7,O=C(CCS)N1CCn2cc(Br)cc2C1,6.4%
8,O=C(CCS)N1CCC(CN2CCCCC2=O)CC1,34.3%
9,COc1cc(CNC(=O)CCS)ccc1OC(F)F,40.7%
10,O=C(NCCS)c1cc(-c2cccc(F)c2)no1,16.2%
11,Cc1c(C(=O)NCCS)ccc2cnc(C3CC3)n12,0%
12,O=C(NCCS)c1cnccc1Oc1ccccc1,45.9%
13,Cc1cc(F)ccc1CC1(C(=O)NCCS)CC1,26.7%
14,O=C(CCS)Nc1cnn(Cc2ccccn2)c1,37.5%
15,O=C(CCS)NCc1cnc2ccccc2c1,38%
16,CN(C)C(CCC(=O)NCCS)c1ccccc1 (configuration not stated),49.9%
17,O=C(CCS)NCc1cccc(C(=O)N2CCOCC2)c1,35.2%
18,COc1nc(CNC(=O)CCS)ccc1OCc1ccccc1,36.2%
19,O=C(Nc1ccc2c(c1)CCO2)C1CCCCN1C(=O)CCS (configuration not stated),29.3%
20,CCn1cc(CC(=O)NCCS)c2ccccc21,29.3%
21,O=C(Cc1ccccc1Nc1c(Cl)cccc1Cl)NCCS,20.8%
22,Cn1ccnc1CN1CCN(C(=O)CCS)CC1,23.6%
23,O=C(NCCS)c1cn([C@@H]2COC[C@H]2O)nn1,44%
24,O=C(NCCS)c1cc(C2CC2)nc2ccccc12,31.3%

row,Compound,percent labeling
1,O=C(CCS)NCc1ccc2c(c1)CC(=O)N2,19.4%
2,COc1ccc(C(=O)NCCS)c(OC(F)F)c1,48.7%
3,O=C(CCS)N1CCN(c2ncnc3ccsc23)CC1,57%
4,O=C(CCS)Nc1ncn(C2CCCCC2)n1,38.7%
5,CN1C(=O)NC2(CCN(C(=O)CCS)CC2)C1=O,36.9%
6,CCN(CC)C(=O)c1cc(NC(=O)CCS)nn1C,43.8%
7,O=C(CCS)Nc1cncc(-c2nccs2)c1,49.8%
8,O=C(CCS)N1CC(Oc2ccc(Cl)cc2)C1,34.7%
9,O=C(CC1(CCc2ccccc2)CCCC1)NCCS,9.8%
10,O=C(CCS)NCC12CC(C1)C(C(F)(F)F)O2 (configuration not stated),31.5%
11,COc1ccc2cc(CNC(=O)CCS)ccc2c1,9.5%
12,O=C1CCC(c2ccc(C(=O)NCCS)cc2)N1 (configuration not stated),29.7%
13,O=C(CCS)NC1(c2cccc(F)c2F)CCCC1,36.4%
14,O=C(CCS)NCCc1ccc(-n2cnnc2)cc1,38%
15,O=C(CCS)N1CCC2(CC1)OCCc1ccccc12,50.7%
16,CCOC(=O)C1C2CC(CN(C(=O)CCS)C2)N1C(=O)OC(C)(C)C (configuration not stated),24.9%
17,Cc1cc2ncc(C(=O)N(C)CC(=O)NCCS)c(C)n2n1,33.2%
18,O=C(CCS)N1CCOCc2cc(Br)ccc21,39.5%
19,O=C(CCS)N1CCc2c(ncn2-c2ccc(F)cc2)C1,52.2%
20,O=C(NCCS)C1COc2ccccc2O1 (configuration not stated),38.5%
21,Cc1nc(C2CCN(C(=O)CCS)C2)n[nH]1 (configuration not stated),32%
22,O=C(CCS)Nc1ccc2[nH]ncc2c1Cl,43%
23,CC(Cc1ccc(F)c(F)c1)C(=O)NCCS (configuration not stated),34.1%
24,NC(=O)c1cc(NC(=O)CCS)ccc1Cl,41.9%

row,Compound,percent labeling
1,O=C(NCCS)C(c1ccccc1)N1CCCCC1=O (configuration not stated),32.2%
2,O=C(NCCS)c1ccc(-c2ccc(F)cc2)o1,28.5%
3,O=C(CCS)N1CC(O)(c2ccc(F)cc2)C1,42.3%
4,O=C(NCCS)[C@@H]1C[C@@H]1c1nc2ncccc2[nH]1,23.9%
5,COc1cc2cc(C(=O)NCCS)[nH]c2cc1OC,32.5%
6,Cn1c(CNC(=O)CCS)nnc1-c1ccccc1,33.8%
7,O=C(NCCS)C1(c2ccc(Br)cn2)CCC1,40.6%
8,O=C(CC1=NN(c2cccc(Cl)c2)C(=O)C1)NCCS,9.2%
9,O=C1CN(Cc2occc2C(=O)NCCS)CCN1,24.5%
10,CC(C)Cc1cc(CNC(=O)CCS)no1,33.1%
11,COc1cc2c(c(OC)c1OC)CCN(C(=O)CCS)CC2,55.2%
12,O=C(CCS)NCc1nnc(N2CCCC2)o1,21.3%
13,O=C(CCS)NC1CCN(C(=O)c2ccccc2F)CC1,43.8%
14,O=C(NCCS)c1cnn(-c2ccc(F)cc2)c1-n1cccc1,23.1%
15,Cc1cc(C(=O)NCCS)c(C)n1C1CCCOC1 (configuration not stated),16.4%
16,COc1c(Cl)cc(C(=O)NCCS)c2ncccc12,34.6%
17,O=C(CCS)NC1CCN(c2ccc(F)cc2)CC1,39.4%
18,CCc1cc2c(CC(=O)NCCS)csc2s1,16.6%
19,Cc1ccc(C(=O)NCCS)c(F)c1Br,30.9%
20,Cc1cc(Oc2ccccc2)ccc1C(=O)NCCS,22.5%
21,CC(=O)N(CCC(=O)NCCS)Cc1ccccc1,34.6%
22,CN(Cc1ccnc2ccccc12)C(=O)CCS,35.4%
23,CC(C)(CNC(=O)CCS)c1ccc(F)cn1,28.5%
24,Cc1cc(NC(=O)CCS)c(C#N)cc1N(C)C,35.4%

# Source: PubChem BioAssay AID2202238 (Ras Initiative Chemistry Research Team, Frederick National …, 2025)
